The source of these data is the RNAGym collection of RNA variant scans (doi:10.7554/elife.90254).

The source gives no read counts; variants with many changes may rest on few reads.

Sequences and labels used below:
B1: LINE1-mini (parent)
chain: GGCAGAGCUCAACACAGCGUGGCAAAGUGGCUGUGGCUAGACUGCC

Variants of B1 are the subject of this data set. Description: self-cleavage, relative activity (ratio to wild type); higher = more cleavage; in vitro, sequencing; the parent is a self-cleaving ribozyme.
Consider A11G A12G A14G G29C G44A, for which the self-cleavage is 0.

For the variant C10G G19C A41G C42U, the self-cleavage was found to be 0.01.

As to C10U G29U A39G, the self-cleavage turned out to be 0.12.

A11C G22A C31U U32A G33A: the self-cleavage amounted to 0.01.

On to A11C U32G G36A C42U, for which the self-cleavage worked out at 0.

Take A11C A25G U34G: the self-cleavage stood at 0.01.

Turning to C10U A11U A14G G19U A26C, the self-cleavage was 0.03.

For the variant C10U C37G U38A, the self-cleavage came to 0.

Turning to A11C A26U C45G, the self-cleavage came to 0.01.

Turning to A11C A24C G33U, the self-cleavage was found to be 0.01.

On to C10U U20G G30U, for which the self-cleavage is 0.28.

On to A11C C13G G21A U28G, for which the self-cleavage worked out at 0.01.

C10U C18G G35U A39C: the self-cleavage amounted to 0.02.

With C10G G22C C37A, the self-cleavage was found to be 0.01.

With C10G G22C C37G, the self-cleavage was determined as 0.01.

On to A11C A14G C18G G22A G29A G30U C42A U43A, for which the self-cleavage turned out to be 0.02.

Regarding A11C C15G U28G G33A, the self-cleavage came to 0.01.

In the case of C10G U34C G44C, the self-cleavage worked out at 0.03.

As for C10U A12G A26C G30C A41G, the self-cleavage came out at 0.01.

Consider C10U G17U G19A G22C A41U, for which the self-cleavage was determined as 0.06.

As to A11G A12U C23A G27A A41C C46G, the self-cleavage amounted to 0.

On to C10U G22U G35C U38A G40U, for which the self-cleavage was 0.02.

For the variant A11C G17C C18A G21U A24G A39G U43A, the self-cleavage came to 0.01.

Consider C10G G22U G44U, for which the self-cleavage was 0.02.

For C10U C15G A16U U28C, the self-cleavage is 0.02.

With C10U A11G C37A C42A C46G, the self-cleavage was 0.01.

C10U C23G G30A U34G: the self-cleavage came to 0.34.

As to C10G U20A C46U, the self-cleavage was 0.04.

For C10U A12C G22C A41G C42U, the self-cleavage came out at 0.

With C10G G22U A24G, the self-cleavage was 0.12.

Consider C10U A12G C15G G29A U32G, for which the self-cleavage was 0.02.

A11C C18U C31A A39U G44U: the self-cleavage is 0.

As for C10U G19C A25G C37A, the self-cleavage stood at 0.04.

In the case of C10G G17A A25U, the self-cleavage is 0.06.

As for C10G U28G C37U C45G, the self-cleavage was 0.01.

On to C10U G22A C37A G40A C42A, for which the self-cleavage amounted to 0.01.

Take C10U G19A A26U U43C: the self-cleavage worked out at 0.06.

As to A11C C18A G19A G29U, the self-cleavage amounted to 0.04.

Take C10G G21C G29A C31U G36U: the self-cleavage amounted to 0.

With A11C A24C A26G G27C C37G G40U, the self-cleavage stood at 0.

C10U A24C U32C G33A: the self-cleavage was determined as 0.04.

As for C10U C18G G35U C45U, the self-cleavage was 0.05.

For the variant C10G G19U A39C C42G, the self-cleavage is 0.01.

As for A11C C15U G29A, the self-cleavage stood at 0.01.

With C10G G21U G40U, the self-cleavage was found to be 0.03.

Consider C10U G40U U43G, for which the self-cleavage came out at 0.02.

Turning to C10U C37G G44C, the self-cleavage turned out to be 0.08.

Turning to A11C G33U C37G, the self-cleavage turned out to be 0.02.

On to A11C U20G G33U G35C, for which the self-cleavage is 0.01.

With C10U C18U A26U U43A, the self-cleavage stood at 0.02.

Turning to C10U A25U C31A U32A, the self-cleavage stood at 0.2.

For A11C G29U C45U, the self-cleavage is 0.

As for C10U A25U G27C C31A, the self-cleavage was 0.42.

For C10U C13G A39U G40U, the self-cleavage was found to be 0.02.

As for A11C G27U G35C G44A C46A, the self-cleavage is 0.01.

In the case of A11C G22U G29A C37G C45U, the self-cleavage is 0.02.

Consider C10G G17U G21U C42A, for which the self-cleavage is 0.01.

Consider C10U A24U G40U, for which the self-cleavage was 0.06.

Turning to A11C C31A G44A, the self-cleavage was determined as 0.01.

For the variant C10G G17U G33U, the self-cleavage is 0.01.

For the variant C10G G17U G33C, the self-cleavage was determined as 0.01.

Turning to A11C A12C A16U, the self-cleavage was 0.02.

As to C10U A11U G19C G27U, the self-cleavage was found to be 0.08.

On to C10U G21A G30A, for which the self-cleavage amounted to 0.74.

Consider C10U A14C U20C G33C, for which the self-cleavage was determined as 0.02.

Regarding C10U C13G G19A A39U, the self-cleavage was determined as 0.16.

A11C C15A A25U G35U G40A: the self-cleavage came to 0.

For the variant C10G U32A U43C, the self-cleavage came to 0.

With C10G U34C A39G C42U, the self-cleavage amounted to 0.02.

Consider C10U A11U U28A U34C U43G, for which the self-cleavage worked out at 0.

As for C10U C15U G19C G35U G44A, the self-cleavage worked out at 0.03.

Consider C10G G35C G40C, for which the self-cleavage came out at 0.02.

Regarding A11G A14C C23U A26G A41G, the self-cleavage was found to be 0.01.

C10U A24U G33U: the self-cleavage amounted to 0.04.

A11C A25U G40C: the self-cleavage was determined as 0.04.

Regarding C10G G21A G36A, the self-cleavage was 0.03.

As for C10U A14C C37A G40C U43G, the self-cleavage was 0.04.

C10U C18A G22C: the self-cleavage was 0.06.

For C10U G21A A26U G33U U38G C45G, the self-cleavage was determined as 0.05.

With A11C U20C G29U G30C, the self-cleavage was determined as 0.01.

For C10U C23U A26U C42G G44C, the self-cleavage stood at 0.02.

As to C10U G22C G29U G36U, the self-cleavage amounted to 0.02.

C10U A16U G17U G19U G22C: the self-cleavage is 0.07.

For the variant C10G G19C C23U G44A, the self-cleavage was 0.02.

Take C10U A41U C45U: the self-cleavage turned out to be 0.07.

Take C10U C23U G30A: the self-cleavage was determined as 0.26.

As to C10G G19U G21C A26U U28G G30U G44C, the self-cleavage came out at 0.05.

Take C10G G30U C37A: the self-cleavage was found to be 0.02.

On to C10U C15A G30C U38G, for which the self-cleavage is 0.03.

Regarding C10U U28G C37G A39U, the self-cleavage amounted to 0.02.

On to A11C C15U C23U C31A U43G, for which the self-cleavage worked out at 0.

On to C10U U20A G30C C31A, for which the self-cleavage is 0.14.

For A11G A12G C18U G30C, the self-cleavage worked out at 0.

As to C10U C18U C23G C31U, the self-cleavage was found to be 0.02.

Turning to A11C G30U C31A U38G, the self-cleavage is 0.

With C10U C15G G17A, the self-cleavage is 0.04.

Take A11C U28C A39G C46A: the self-cleavage came to 0.01.

On to C10U G19U A24U G30C G44C C46G, for which the self-cleavage was determined as 0.01.

Consider C10G G22U A26C, for which the self-cleavage is 0.15.

On to C10U A24U G27U, for which the self-cleavage was 0.61.

Turning to C10U C13A U20G A25G A41G, the self-cleavage was determined as 0.

Consider C10G U20A G33U, for which the self-cleavage came to 0.03.

C10G U32G G33A: the self-cleavage is 0.05.

For the variant C10G G19A C31A U38C, the self-cleavage was determined as 0.02.

For C10U C13A G36U G40U, the self-cleavage stood at 0.13.

On to C10U C37A C42G, for which the self-cleavage came out at 0.

As to A11C G40A C42A G44U C45U, the self-cleavage was 0.01.

For C10G U34A C46A, the self-cleavage was 0.05.

In the case of C10G U34A C46U, the self-cleavage was 0.05.

Regarding A11C G19U G22U C23A U28A, the self-cleavage stood at 0.25.

With C10U U34C G40U G44U, the self-cleavage was found to be 0.04.

C10U C18A A24C: the self-cleavage is 0.19.

In the case of C10G G19C C42A, the self-cleavage was determined as 0.

Take A11C C37U C45U: the self-cleavage is 0.01.

Turning to C10U A14G G21U A25C C42A, the self-cleavage is 0.05.

On to C10G G17U G33C C37A, for which the self-cleavage amounted to 0.02.

For C10U U20C U34C G36C G44U, the self-cleavage was 0.02.

For A11C A26G C45U, the self-cleavage came out at 0.06.

A11C A26G C45A: the self-cleavage is 0.

In the case of C10G G19A G29C, the self-cleavage was determined as 0.16.

For the variant C10U G22A U28C, the self-cleavage amounted to 0.03.

Consider A11C G19C G27A U28C C31G, for which the self-cleavage was 0.01.

On to A11C A12U C15A A25U G29U, for which the self-cleavage was found to be 0.

Regarding A11C C15U A26G G36U, the self-cleavage amounted to 0.04.

For the variant C10G G30A A39G, the self-cleavage turned out to be 0.02.

For C10U A11C A14U, the self-cleavage came to 0.08.

Turning to C10U A16C A25G G35A, the self-cleavage worked out at 0.03.

Take A11C C13G U28A C37G: the self-cleavage came out at 0.01.

On to C10U A24G C37U A41U, for which the self-cleavage worked out at 0.02.

On to C10U C15A G40C, for which the self-cleavage turned out to be 0.02.

Take C10U G29U G40A G44U: the self-cleavage worked out at 0.02.

Turning to C10G C31A U38C, the self-cleavage was 0.01.

As for A11C A26G U28A G33A, the self-cleavage came out at 0.01.

On to C10U A16G A26G A39G U43A, for which the self-cleavage worked out at 0.01.

As to A11C C13A G35C G44A, the self-cleavage came to 0.02.

As for A11C C23U G40C, the self-cleavage amounted to 0.02.

Consider A11C C13U A24G, for which the self-cleavage was found to be 0.03.

Regarding C10G C23G G27U G33C G36A, the self-cleavage turned out to be 0.01.

As for C10G G33C C37A, the self-cleavage turned out to be 0.

For the variant A11C A26G G30C C46A, the self-cleavage was 0.

A11C C23U G35A G36U C45U: the self-cleavage amounted to 0.01.

C10U G22C C46A: the self-cleavage worked out at 0.07.

Turning to A11C C13A C23A G36C C37G A39G, the self-cleavage was 0.

Regarding C10G G19A G30U U32A G33A C45U, the self-cleavage is 0.01.

On to C10U G17U G19C U32C G33C, for which the self-cleavage is 0.

As to A11C C15G G19C G33A, the self-cleavage was 0.01.

In the case of A11G A14U C15U C37G, the self-cleavage worked out at 0.05.

For the variant C10U G21U C31U, the self-cleavage stood at 0.53.

For C10G C23U C46G, the self-cleavage is 0.16.

C10G G17U G33U C46G: the self-cleavage stood at 0.02.

Take C10U C18A G19C: the self-cleavage was determined as 0.37.

In the case of C10U A12G C13A A16U C46G, the self-cleavage came out at 0.01.

In the case of A11C A16G G17A G21C G22A, the self-cleavage was 0.01.

As for C10U C15G C18U U20A C45G, the self-cleavage worked out at 0.01.

As for C10U U34A G44C, the self-cleavage was 0.02.

Take C10U U20G G21U U28A: the self-cleavage is 0.15.

As for C10U G27U C37A G40U C42U, the self-cleavage came out at 0.05.

Turning to A11C G19C G40C C45U, the self-cleavage stood at 0.01.

Consider C10U C13U C15A G19U, for which the self-cleavage came to 0.04.

As for C10G G36A G40A, the self-cleavage worked out at 0.

With A11C A12U G44U, the self-cleavage came out at 0.01.

C10U C15G G17U G22C G33A: the self-cleavage was 0.07.

With C10G U28A C37G, the self-cleavage is 0.01.

As to C10U A12C C15U A16U, the self-cleavage came out at 0.03.

For A11C G21A A41C, the self-cleavage is 0.01.

With C10U A12C G33U, the self-cleavage is 0.05.

C10G C23U C31A G33U: the self-cleavage amounted to 0.01.
